The other results are listed elsewhere or left out. At the low end of the ranking the order means little.

In the assay the target is T1, GST-Rok-C97-191 (UniProt O34857).
T1 sequence: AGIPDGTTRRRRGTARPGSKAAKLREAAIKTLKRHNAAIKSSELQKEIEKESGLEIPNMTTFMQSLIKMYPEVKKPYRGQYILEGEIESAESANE
Description: protein binding microarray.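 Further: rank score from −0.5 (least bound) to 0.5 (best bound).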 Conditions: Rok is a gene silencer of Bacillus subtilis; high values mean tight binding; most listed sequences are background and not binding sites; double strand, one strand shown.
For CTGTTAAC, the binding signal is -0.0355 E-score. Next, ACGAGCAC: -0.0971 E-score; AGAGGCCT: -0.229 E-score.

Consider AACTAGAC, for which the binding signal stood at 0.193 E-score.

Consider AACACCGC, for which the binding signal was -0.0882 E-score. AATTCAGC showed a binding signal of 0.0672 E-score. Next, AAGCTCCG: 0.125 E-score. In the case of AATCACGG, the binding signal is -0.0679 E-score.

AAAACTCG: the binding signal was 0.0917 E-score.

As for CTAGGGAA, the binding signal is -0.00393 E-score. The result for GAGATATC reads 0.182 E-score; that for AGGTGCTC, -0.21 E-score; that for AATACCGA, 0.185 E-score. Next, ACCACTCA: 0.117 E-score.

The sequence CAAGGAAG came in with a binding signal of -0.172 E-score. Turning to GCTTGCTA, the binding signal stood at 0.166 E-score.

TAAGGGGA registered a binding signal of -0.101 E-score. The result for CCGTTTGA reads -0.0316 E-score. The result for AAGGTGCC reads -0.236 E-score; that for CGCGAGAA, -0.0156 E-score.

The sequence CTTGCCAA gave a binding signal of -0.0342 E-score. In the case of ACAGCCAG, the binding signal was -0.133 E-score. Turning to ATTAAACG, the binding signal stood at 0.0877 E-score. The result for AGAGTCGG reads -0.123 E-score.

GACGAGAC: the binding signal is -0.148 E-score. Next, CGTCCTCC: -0.437 E-score; CGACATTC: -0.0652 E-score. Turning to CTTAAATA, the binding signal was 0.199 E-score. Next, ACATTCTA: 0.242 E-score; AGGACGTA: 0.0872 E-score. The result for GGGATGGA reads -0.212 E-score. Next, GTCAAGAA: 0.00189 E-score; TCAAATAA: -0.00421 E-score.

Sequence CGTGTCGA showed a binding signal of -0.142 E-score.

GCGACAAA registered a binding signal of -0.0747 E-score. Next, AAGGCCTC: -0.356 E-score. The result for GTTCATCA reads -0.0161 E-score. In turn, ACAGTTGG came in with a binding signal of -0.0884 E-score. The result for AATATATA reads 0.462 E-score; that for CCAGTGAC, -0.156 E-score; that for TGAGAGAA, -0.04 E-score. In the case of CGTCGGGC, the binding signal is -0.101 E-score. The result for CTATCCAC reads -0.0301 E-score.

In turn, CCAATGCG registered a binding signal of -0.0622 E-score. In turn, ATTACACA gave a binding signal of 0.237 E-score. Next, GGGATAGA: -0.0322 E-score; CGAGAGTA: 0.15 E-score; AGGTGCTG: -0.144 E-score. The result for GATTCCCC reads -0.15 E-score.

As for CCACTCAC, the binding signal was 0.0769 E-score. Next, GAGCATGA: 0.0816 E-score; GATAGAAA: 0.333 E-score. The result for GAGGCGGC reads -0.242 E-score; that for TGGACACA, -0.203 E-score; that for CGGTGTGC, -0.249 E-score. Next, AAAAGTGT: -0.0291 E-score. With AAGTTTCA, the binding signal is 0.107 E-score. In turn, AGATTTAG registered a binding signal of 0.096 E-score. The result for TCCTTGCA reads 0.0133 E-score. Next, AATTTCAT: 0.286 E-score; TGCCCTAA: -0.0538 E-score; CGCACACC: -0.145 E-score. The result for CGCTAGCC reads -0.204 E-score; that for GAATAGTC, 0.0651 E-score; that for ACCGTCAT, -0.109 E-score. Sequence AACCATCG yielded a binding signal of 0.061 E-score.

CGCTGCTC yielded a binding signal of -0.354 E-score.

Regarding AAGACGAC, the binding signal is -0.0551 E-score. Next, CCTCAGAG: -0.24 E-score. Sequence CGGTCGAC displayed a binding signal of -0.209 E-score. The result for GCGGTTCA reads -0.0423 E-score; that for CCCTGTGC, -0.0587 E-score. The result for AAAGAAAA reads -0.0291 E-score. Next, CGATTTTA: 0.23 E-score; CTCTTGTA: 0.113 E-score. Take CCGTGTAC: the binding signal amounted to 0.018 E-score. TCCCCAGA gave a binding signal of -0.313 E-score. In turn, ATTAGATA showed a binding signal of 0.32 E-score.

Sequence CTAATCCA showed a binding signal of 0.00703 E-score. The result for ACTAGGCG reads -0.104 E-score; that for CACGGGAA, -0.0154 E-score; that for AACTCTGT, -0.081 E-score.

CTGCATCC gave a binding signal of 0.0247 E-score. For the sequence CGCTGTGA, the binding signal is -0.0932 E-score. The result for ACTTTTGC reads -0.132 E-score; that for CAACCAGC, -0.179 E-score; that for ATGACAAT, 0.00548 E-score.

CTGGTGGA yielded a binding signal of -0.216 E-score. GGTCACGA: the binding signal was -0.0446 E-score.

Regarding CACCAAAA, the binding signal is -0.0744 E-score. Consider ACACTGCG, for which the binding signal was -0.132 E-score. The result for AGGCCCCT reads -0.347 E-score; that for CTGGGAAC, -0.0999 E-score. Next, ATACATCA: 0.213 E-score; AAACGCTG: -0.033 E-score; GCGTGACC: -0.0291 E-score. Next, GGTCATAA: -0.00394 E-score; CGACCCTA: -0.0318 E-score; ATACGTTG: 0.0779 E-score. As to AGCTATAC, the binding signal was 0.208 E-score. Sequence AATCATGT returned a binding signal of -0.0344 E-score. The result for ATCTAACG reads 0.211 E-score; that for ACACCTGC, -0.197 E-score. In the case of CCCAGCAG, the binding signal was -0.112 E-score. Take ACCAGCAT: the binding signal stood at 0.0241 E-score. The result for AACTCAAG reads 0.0978 E-score; that for CAGGAACG, -0.0533 E-score. The result for CATCAGGA reads -0.199 E-score; that for CACGGCTC, -0.105 E-score. Next, GGGTCGAC: -0.298 E-score.

The values are drawn from publication PMC6212790.
